From PubChem BioAssay AID686978 (National Center for Advancing Translational Sciences (NCATS), 2013)
“And” between values parts separate entries of the source, which are not always exact repeats. Equal values may be shown once. Hit rate of the full screen: of about 420,000 compounds, about 64,000 (15%) were called active. This list was built around the results that the source calls inconclusive (neither active nor inactive); the mix of calls is not that of the screen. The call rests on the fitted dose curve; in most records, active means well fitted inhibition curve with a large enough effect; inconclusive means small, poorly fitted or top-dose-only effect; inactive means flat fitted curve, though single readings scatter. Potencies of inconclusive entries are doubtful fits and often do not repeat.

assay: qHTS for Inhibitors of human tyrosyl-DNA phosphodiesterase 1 (TDP1): qHTS in cells in absence of CPT; conditions: DT40 Tdp1-/- hTDP1 cells, no CPT, ATP luminescence, 48 h; series mostly up to 46.2 µM; further: nearly all actives have a fitted effect of over 55% in size
How it was run: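 Chicken DT40 Tdp1-/- cells complemented with human TDP1, screened without camptothecin (DMSO vehicle only), 400 cells/well. Compounds pin-transferred, cells incubated at 37 °C for at least 48 hr. Growth read as ATP-dependent luminescence (CellTiter-Glo, 30 min at RT).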
Potency means the concentration at half of the fitted maximal effect; tags describe the fitted curve by direction and shape.

SMILES	Potency
Cc1ccc(C)c(N2CCN(S(=O)(=O)c3ccc4c(c3)C(C(C)C)C(=O)N4)CC2)c1 (stereo not given)	active: 18.4 µM
CCOC(=O)c1ccc(CN(Cc2ccc(F)cc2)S(=O)(=O)c2ccc(F)c(C(=O)Nc3c(C)cccc3C)c2)cc1	inconclusive: 9.2 µM [inhibitor, partial curve, poor fit]
CC(C)C(=O)NC(=S)Nc1ccc(S(=O)(=O)NC2CCCCC2)cc1	inactive
COc1ccc(S(=O)(=O)N(C)CC(=O)Nc2ccccc2SC)cc1Cl	inconclusive: 23.1 µM [inhibitor, single point]
COc1ccc(N2CCN(C(=O)c3cccc(S(=O)(=O)N4CCOCC4)c3)CC2)cc1	inactive
Cc1cc(-c2nc3cccnc3s2)ccc1NS(=O)(=O)c1cccs1	inconclusive: 20.6 µM [inhibitor, single point]
CC[C@]1(C(=O)OC)[C@H]2C(=O)N(C)C(=O)[C@H]2[C@H]2CN=C(SCc3ccc(C#N)cc3)N21	inactive
CCc1ccc(C2CC(=O)c3c([nH]c(C(=O)OC4CCCC4)c3C)C2)cc1 (stereo not given)	inconclusive: 20.6 µM [inhibitor, single point]
O=C(Nc1nc2c(F)cc(F)cc2s1)c1ccccn1	active: 0.731 µM
COC(=O)[C@@]12CCCCN1[C@H](c1ccc(-c3ccccc3)cc1)[C@H]1C(=O)N(C)C(=O)[C@H]12	inconclusive: 20.6 µM [inhibitor, single point]
Cc1ccc2nc3c(c(C(=O)OC4CCOC4=O)c2c1)CCCC3 (stereo not given)	inactive
CC(C)c1ccccc1NC(=O)C1C2C=CC(C2)C1C(=O)O (stereo not given)	inactive
O=C(Cc1cc(C(=O)O)c2ccccc2n1)Nc1ccccc1	inconclusive: 25.9 µM [inhibitor, single point]
COc1ccc(-c2c(C)n([O-])c3c([n+]2=O)CCCCC3)cc1OC	inactive
O=C(COc1ccccc1C(=O)Nc1ccccc1)NCCCCc1ccccc1	active: 17.8 µM
N#Cc1c(/N=C/c2ccc(-c3ccc(C(=O)O)c(Cl)c3)o2)sc2c1CCCC2	inactive
Cc1cc(C)nc(Sc2ncnc3sc4c(c23)CCC4)n1	inconclusive: 29.1 µM [inhibitor, single point]
C=CCc1ccc(OCCCNCc2ccccc2)c(OC)c1	inconclusive: 18.4 µM [inhibitor, single point]
CC(C)C1Oc2ccccc2N(CC(=O)N2CCOCC2)C1=O (stereo not given)	inactive
C[C@@H](NC(=O)c1[nH]cnc1C(=O)Nc1ccon1)c1ccccc1	inconclusive: 29.1 µM [inhibitor, single point]
O=C(NCCCc1ccccc1)c1cncc(Br)c1	inactive
O=C(O)c1cccc(NC(=O)c2ccc(COc3ccc(Cl)cc3)cc2)c1	inactive
O=C1C(Cc2ccccc2)Nc2ncnc(N3CCCCC3)c2N1Cc1ccc(Br)cc1 (stereo not given)	inconclusive: 29.1 µM [inhibitor, single point] and inconclusive: 20.6 µM [inhibitor, single point]

SMILES	Potency
CCOc1ccc(S(=O)(=O)N2CCCCC2)cc1NC(=O)Cc1cccc(C(F)(F)F)c1	inconclusive: 25.9 µM [inhibitor, single point]
CC(=O)Nc1ccc(NC(=O)C/C(C)=N/NC(=O)c2cccc3ccccc23)cc1	inactive
CCc1ccc2occ(CC(=O)Nc3c(C(=O)c4ccc(C)cc4)oc4ccccc34)c2c1	inactive
COc1ccc(CCn2c(-c3cc([N+](=O)[O-])cc([N+](=O)[O-])c3)nc3nc4ccccc4nc32)cc1	inconclusive: 20.6 µM [inhibitor, partial curve]
COc1ccc(C2=NNC(c3cccnc3)=Nc3ccc(OC)cc32)cc1	inconclusive: 20.6 µM [inhibitor, single point]
Cn1c(C(=O)Nc2ccccc2)cc2sccc21	inactive
CC(NC(=O)c1ccc2c(=O)n3c(nc2c1)CCC3)c1ccc(S(N)(=O)=O)cc1 (stereo not given)	inactive
N#C/C(=C(O)\C=C\c1ccccc1)c1nc2ccccc2[nH]1	inconclusive: 6.51 µM [inhibitor, full curve, poor fit]
COc1ccc(C(=O)c2cnc3ccccc3c2-c2ccccc2)cc1	inconclusive: 25.9 µM [inhibitor, single point]
CCOc1ccc(NC(=O)Cn2c(=O)n(CCCCCC(=O)NCc3ccccc3)c(=O)c3sccc32)cc1	active: 16.4 µM
COc1cccc(NC(=O)N(C)C[C@H]2Oc3cc(Br)ccc3S(=O)(=O)N([C@H](C)CO)C[C@H]2C)c1	inconclusive: 29.1 µM [inhibitor, single point]
Cc1ccc2c(CNCc3ccc(C)o3)c(C(=O)O)n(Cc3ccccc3C)c2c1	inconclusive: 23.1 µM [inhibitor, single point]
NNC(=O)c1ccc2c(c1)S(=O)(=O)NNC2=O	inactive
COc1[nH]c2ccc(F)cc2c1C(=O)OCC1CCN(CCNS(C)(=O)=O)CC1	inactive
COc1ccc([N+](=O)[O-])cc1/C=N/NC(=O)CNC(=O)C(c1ccccc1)c1ccccc1	inconclusive: 16.4 µM [inhibitor, single point]
CC1CC(C)CN(C(=O)CSc2ccsc2[N+](=O)[O-])C1 (stereo not given)	inconclusive: 14.6 µM [inhibitor, partial curve]
CCC(c1nnnn1CC1CCCO1)N(CCCO)Cc1cc2cccc(C)c2[nH]c1=O (stereo not given)	inactive
CCOC(=O)C1CCN(Cc2ccc(O)c3ncccc23)CC1	active: 3.66 µM
CCN=c1scc(C)n1/N=C/c1ccc(O)c(O)c1O	active: 7.31 µM
N#C/C(=C(/O)COC(=O)CSc1ccc2ccccc2c1)c1nc2ccccc2[nH]1	active: 2.91 µM
CC(C)(C)S(=O)N1Cc2cc(C(=O)NCCCN3CCOCC3)nc(-c3cccc(-c4cc5ccccc5o4)c3)c2[C@@H]1CCO (stereo not given in full)	active: 18.4 µM
COc1ccccc1-n1cc(CN2CCOc3ccc(CN4C[C@@H](C)O[C@@H](C)C4)cc3C2)cn1	inconclusive: 20.6 µM [inhibitor, single point]
